This is an account of results in article PMC8201613.

The chains behind the UniProt entries cited, without tags or fusion partners.
UniProt Q14573: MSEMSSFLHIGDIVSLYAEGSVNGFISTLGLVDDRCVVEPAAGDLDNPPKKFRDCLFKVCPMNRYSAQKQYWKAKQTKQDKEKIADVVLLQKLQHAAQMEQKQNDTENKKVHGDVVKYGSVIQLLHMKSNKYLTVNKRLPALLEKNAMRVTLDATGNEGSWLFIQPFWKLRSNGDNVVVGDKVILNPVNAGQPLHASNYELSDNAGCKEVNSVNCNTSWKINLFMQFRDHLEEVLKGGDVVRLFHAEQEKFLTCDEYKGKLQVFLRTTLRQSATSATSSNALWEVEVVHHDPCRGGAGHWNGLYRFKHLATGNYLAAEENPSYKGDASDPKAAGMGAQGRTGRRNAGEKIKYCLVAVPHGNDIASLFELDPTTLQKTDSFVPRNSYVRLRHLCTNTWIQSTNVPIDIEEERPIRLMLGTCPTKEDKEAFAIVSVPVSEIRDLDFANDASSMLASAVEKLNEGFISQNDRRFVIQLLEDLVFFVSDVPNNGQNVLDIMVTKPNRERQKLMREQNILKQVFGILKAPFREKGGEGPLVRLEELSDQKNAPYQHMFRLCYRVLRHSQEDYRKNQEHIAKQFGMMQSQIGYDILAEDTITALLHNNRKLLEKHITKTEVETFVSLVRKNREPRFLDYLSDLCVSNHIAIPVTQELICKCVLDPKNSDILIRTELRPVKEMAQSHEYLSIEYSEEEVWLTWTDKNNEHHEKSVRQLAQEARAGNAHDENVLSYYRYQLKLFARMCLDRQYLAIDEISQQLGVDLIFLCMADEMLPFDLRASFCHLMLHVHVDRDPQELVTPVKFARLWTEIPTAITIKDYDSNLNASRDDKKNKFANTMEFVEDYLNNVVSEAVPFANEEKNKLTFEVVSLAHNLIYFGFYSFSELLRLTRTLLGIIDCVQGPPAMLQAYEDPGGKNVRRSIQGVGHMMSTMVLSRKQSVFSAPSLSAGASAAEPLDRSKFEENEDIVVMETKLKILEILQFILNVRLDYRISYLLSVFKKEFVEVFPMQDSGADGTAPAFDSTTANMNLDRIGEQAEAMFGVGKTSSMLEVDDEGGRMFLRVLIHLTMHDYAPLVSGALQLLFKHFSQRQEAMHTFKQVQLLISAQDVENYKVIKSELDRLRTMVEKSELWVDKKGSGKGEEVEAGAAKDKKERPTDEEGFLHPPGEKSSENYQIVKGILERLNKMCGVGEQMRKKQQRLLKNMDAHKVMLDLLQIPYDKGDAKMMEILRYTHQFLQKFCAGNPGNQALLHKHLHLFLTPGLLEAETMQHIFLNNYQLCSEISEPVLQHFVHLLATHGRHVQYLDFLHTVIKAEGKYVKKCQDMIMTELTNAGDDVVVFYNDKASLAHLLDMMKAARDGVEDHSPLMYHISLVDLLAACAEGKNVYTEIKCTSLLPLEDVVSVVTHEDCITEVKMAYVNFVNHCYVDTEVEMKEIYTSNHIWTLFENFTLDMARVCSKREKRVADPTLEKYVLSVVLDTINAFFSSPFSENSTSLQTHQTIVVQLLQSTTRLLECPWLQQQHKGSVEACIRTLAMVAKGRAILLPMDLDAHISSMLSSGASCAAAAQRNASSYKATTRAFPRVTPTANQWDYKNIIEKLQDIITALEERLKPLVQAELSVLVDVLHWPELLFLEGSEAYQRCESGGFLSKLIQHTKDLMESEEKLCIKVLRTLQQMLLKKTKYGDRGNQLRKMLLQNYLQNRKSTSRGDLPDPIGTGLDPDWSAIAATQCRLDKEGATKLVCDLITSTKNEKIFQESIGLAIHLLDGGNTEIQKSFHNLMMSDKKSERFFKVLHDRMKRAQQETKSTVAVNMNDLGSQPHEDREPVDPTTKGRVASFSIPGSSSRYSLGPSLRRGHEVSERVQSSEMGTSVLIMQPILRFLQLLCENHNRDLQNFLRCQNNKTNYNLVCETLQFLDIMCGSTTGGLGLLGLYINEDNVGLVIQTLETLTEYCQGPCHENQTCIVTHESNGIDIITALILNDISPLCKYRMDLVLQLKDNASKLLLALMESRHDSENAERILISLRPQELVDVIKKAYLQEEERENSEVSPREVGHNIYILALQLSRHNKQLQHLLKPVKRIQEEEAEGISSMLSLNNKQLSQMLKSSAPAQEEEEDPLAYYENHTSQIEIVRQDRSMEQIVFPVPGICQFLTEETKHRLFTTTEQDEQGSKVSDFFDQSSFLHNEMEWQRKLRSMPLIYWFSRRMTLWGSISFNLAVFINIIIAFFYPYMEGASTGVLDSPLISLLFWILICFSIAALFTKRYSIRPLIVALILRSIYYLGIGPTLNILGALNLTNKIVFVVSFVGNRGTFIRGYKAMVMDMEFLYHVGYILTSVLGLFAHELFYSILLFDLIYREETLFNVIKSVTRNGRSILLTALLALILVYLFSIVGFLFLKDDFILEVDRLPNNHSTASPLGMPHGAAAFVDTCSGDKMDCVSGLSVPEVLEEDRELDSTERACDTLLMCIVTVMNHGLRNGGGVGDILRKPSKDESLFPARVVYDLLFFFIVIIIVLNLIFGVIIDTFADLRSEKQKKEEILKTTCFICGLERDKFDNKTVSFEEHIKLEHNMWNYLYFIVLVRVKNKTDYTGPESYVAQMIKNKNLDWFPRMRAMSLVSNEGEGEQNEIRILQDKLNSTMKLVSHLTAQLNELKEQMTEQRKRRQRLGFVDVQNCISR
UniProt Q14643: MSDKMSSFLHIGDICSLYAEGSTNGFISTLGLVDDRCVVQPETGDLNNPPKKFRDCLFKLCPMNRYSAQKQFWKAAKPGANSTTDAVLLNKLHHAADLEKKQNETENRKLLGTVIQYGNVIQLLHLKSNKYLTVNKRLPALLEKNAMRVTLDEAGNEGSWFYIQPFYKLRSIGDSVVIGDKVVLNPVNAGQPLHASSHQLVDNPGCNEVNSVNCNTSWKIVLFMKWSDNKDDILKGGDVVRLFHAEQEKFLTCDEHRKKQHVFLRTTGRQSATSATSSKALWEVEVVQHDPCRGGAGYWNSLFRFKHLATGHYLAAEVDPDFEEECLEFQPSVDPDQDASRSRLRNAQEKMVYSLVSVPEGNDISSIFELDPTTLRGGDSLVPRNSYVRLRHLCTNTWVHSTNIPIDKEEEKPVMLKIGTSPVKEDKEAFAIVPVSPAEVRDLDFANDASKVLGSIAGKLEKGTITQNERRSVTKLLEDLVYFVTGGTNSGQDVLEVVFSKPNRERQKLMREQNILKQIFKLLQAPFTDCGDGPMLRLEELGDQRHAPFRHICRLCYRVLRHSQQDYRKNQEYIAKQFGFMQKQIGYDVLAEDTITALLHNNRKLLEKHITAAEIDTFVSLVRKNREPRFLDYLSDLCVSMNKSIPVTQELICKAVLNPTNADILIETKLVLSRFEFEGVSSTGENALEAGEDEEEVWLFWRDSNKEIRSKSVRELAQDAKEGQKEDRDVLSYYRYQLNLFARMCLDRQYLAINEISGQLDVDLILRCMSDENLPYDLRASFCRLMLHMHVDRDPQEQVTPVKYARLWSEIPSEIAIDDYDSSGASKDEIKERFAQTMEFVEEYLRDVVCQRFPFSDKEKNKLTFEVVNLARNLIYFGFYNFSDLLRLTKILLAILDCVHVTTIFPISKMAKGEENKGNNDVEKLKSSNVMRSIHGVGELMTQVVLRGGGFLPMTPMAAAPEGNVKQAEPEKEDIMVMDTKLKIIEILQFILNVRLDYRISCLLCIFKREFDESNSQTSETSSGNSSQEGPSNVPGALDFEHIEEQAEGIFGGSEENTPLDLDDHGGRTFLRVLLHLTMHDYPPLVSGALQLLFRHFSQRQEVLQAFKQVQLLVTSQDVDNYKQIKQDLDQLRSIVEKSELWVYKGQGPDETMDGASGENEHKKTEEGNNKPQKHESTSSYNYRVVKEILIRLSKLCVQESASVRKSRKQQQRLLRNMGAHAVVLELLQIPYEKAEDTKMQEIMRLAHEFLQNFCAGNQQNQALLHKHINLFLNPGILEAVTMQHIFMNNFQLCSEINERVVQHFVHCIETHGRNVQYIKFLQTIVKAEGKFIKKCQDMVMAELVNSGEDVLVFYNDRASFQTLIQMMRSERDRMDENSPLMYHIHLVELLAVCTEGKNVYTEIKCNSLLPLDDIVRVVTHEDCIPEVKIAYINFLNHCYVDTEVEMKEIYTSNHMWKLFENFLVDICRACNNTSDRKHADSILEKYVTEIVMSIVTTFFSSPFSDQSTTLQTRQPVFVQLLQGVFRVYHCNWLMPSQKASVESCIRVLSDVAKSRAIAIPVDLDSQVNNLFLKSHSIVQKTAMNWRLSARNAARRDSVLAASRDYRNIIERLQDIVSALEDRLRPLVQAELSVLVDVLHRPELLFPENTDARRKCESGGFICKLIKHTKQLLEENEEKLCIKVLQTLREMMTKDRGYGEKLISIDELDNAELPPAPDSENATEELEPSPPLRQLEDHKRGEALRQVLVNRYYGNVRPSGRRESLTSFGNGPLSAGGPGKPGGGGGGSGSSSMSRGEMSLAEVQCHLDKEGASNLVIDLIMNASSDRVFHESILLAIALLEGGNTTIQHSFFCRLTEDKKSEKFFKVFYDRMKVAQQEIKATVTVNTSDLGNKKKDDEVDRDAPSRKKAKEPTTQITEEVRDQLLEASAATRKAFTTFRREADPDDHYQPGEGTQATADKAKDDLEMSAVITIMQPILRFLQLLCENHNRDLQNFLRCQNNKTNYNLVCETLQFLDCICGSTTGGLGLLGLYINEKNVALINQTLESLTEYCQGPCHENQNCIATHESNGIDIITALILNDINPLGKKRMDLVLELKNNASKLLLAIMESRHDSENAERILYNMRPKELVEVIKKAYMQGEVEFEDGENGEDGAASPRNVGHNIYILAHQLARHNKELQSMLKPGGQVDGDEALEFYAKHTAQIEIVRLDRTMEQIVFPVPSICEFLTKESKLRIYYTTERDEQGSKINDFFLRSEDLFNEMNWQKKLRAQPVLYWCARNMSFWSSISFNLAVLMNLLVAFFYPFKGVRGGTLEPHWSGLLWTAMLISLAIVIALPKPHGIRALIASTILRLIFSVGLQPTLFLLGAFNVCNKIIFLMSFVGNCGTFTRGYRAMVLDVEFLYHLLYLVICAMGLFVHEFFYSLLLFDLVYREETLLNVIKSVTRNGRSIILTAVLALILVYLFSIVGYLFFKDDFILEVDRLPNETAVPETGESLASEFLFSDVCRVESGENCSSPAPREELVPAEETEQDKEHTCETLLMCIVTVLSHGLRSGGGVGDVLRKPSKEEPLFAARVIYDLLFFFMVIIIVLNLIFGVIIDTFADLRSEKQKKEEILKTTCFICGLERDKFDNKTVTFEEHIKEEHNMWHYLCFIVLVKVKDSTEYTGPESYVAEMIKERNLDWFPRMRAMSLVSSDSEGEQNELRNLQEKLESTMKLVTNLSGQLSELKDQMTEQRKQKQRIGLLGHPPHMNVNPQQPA
UniProt P97287: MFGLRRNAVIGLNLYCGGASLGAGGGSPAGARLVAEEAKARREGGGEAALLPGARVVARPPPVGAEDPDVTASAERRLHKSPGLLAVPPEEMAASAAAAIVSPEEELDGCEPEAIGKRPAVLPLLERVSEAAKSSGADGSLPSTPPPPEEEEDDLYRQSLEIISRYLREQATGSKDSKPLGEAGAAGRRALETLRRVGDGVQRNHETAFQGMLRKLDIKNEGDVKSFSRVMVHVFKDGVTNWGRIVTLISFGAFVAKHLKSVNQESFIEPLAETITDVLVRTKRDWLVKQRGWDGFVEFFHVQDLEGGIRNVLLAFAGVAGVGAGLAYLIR

No constants are given. Whether binding was seen depends on the method and setting. Binding seen in cells or lysates may run through a third protein. Some binding calls cover weakened binding; strength is not graded here. For some of these results: Tags and fused reporters may be left off the sequences shown.

In experiment [1] the target is inositol 1,4,5-trisphosphate receptor type 3 (human (endogenous in HeLa)) (UniProt Q14573). Briefly: co-IP; anti-IP3R1/IP3R3 IP (Protein A-Sepharose) from lysates (1% Triton X-100) of Bok KO HeLa cells transfected with T-Bok constructs; immunoblot.
Experiment [2] concerns the target inositol 1,4,5-trisphosphate receptor type 1 (human (endogenous in HeLa)) (UniProt Q14643). The experiment is described as above.
Another experiment deals with 1F-mouse Mcl-1 (mouse) (UniProt P97287). Briefly: co-IP; anti-Flag IP from lysates (1% Triton X-100) of Bok KO HeLa cells co-transfected with 1F-Mcl-1 and Bok constructs for ~18 h; immunoblot.

B1: V5-TurboID-Bok^WT (protein, UniProt O35425 1-213)
chain: MEVLRRSSVFAAEIMDAFDRSPTDKELVAQAKALGREYVHARLLRAGLSWSAPERASPAPGGRLAEVCTVLLRLGDELEQIRPSVYRNVARQLHIPLQSEPVVTDAFLAVAGHIFSAGITWGKVVSLYSVAAGLAVDCVRQAQPAMVHALVDCLGEFVRKTLATWLRRRGGWTDVLKCVVSTDPGFRSHWLVATLCSFGRFLKAAFFLLLPER
As for B1, the binding result in experiment [1] and in experiment [2] was “binds” in each case.

B2: V5-TurboID-Bok^L34G (protein, UniProt O35425 1-213)
chain: MEVLRRSSVFAAEIMDAFDRSPTDKELVAQAKAGGREYVHARLLRAGLSWSAPERASPAPGGRLAEVCTVLLRLGDELEQIRPSVYRNVARQLHIPLQSEPVVTDAFLAVAGHIFSAGITWGKVVSLYSVAAGLAVDCVRQAQPAMVHALVDCLGEFVRKTLATWLRRRGGWTDVLKCVVSTDPGFRSHWLVATLCSFGRFLKAAFFLLLPER
Consider B2, for which the binding result in experiment [1] and in experiment [2] was “no binding” in each case.

B3: mouse Bok^WT (protein, UniProt O35425 1-213)
chain: MEVLRRSSVFAAEIMDAFDRSPTDKELVAQAKALGREYVHARLLRAGLSWSAPERASPAPGGRLAEVCTVLLRLGDELEQIRPSVYRNVARQLHIPLQSEPVVTDAFLAVAGHIFSAGITWGKVVSLYSVAAGLAVDCVRQAQPAMVHALVDCLGEFVRKTLATWLRRRGGWTDVLKCVVSTDPGFRSHWLVATLCSFGRFLKAAFFLLLPER
As for B3, the binding result in the experiment with 1F-mouse Mcl-1 (mouse) is listed as “binds”.

B4: mouse Bok^L34G (protein, UniProt O35425 1-213)
chain: MEVLRRSSVFAAEIMDAFDRSPTDKELVAQAKAGGREYVHARLLRAGLSWSAPERASPAPGGRLAEVCTVLLRLGDELEQIRPSVYRNVARQLHIPLQSEPVVTDAFLAVAGHIFSAGITWGKVVSLYSVAAGLAVDCVRQAQPAMVHALVDCLGEFVRKTLATWLRRRGGWTDVLKCVVSTDPGFRSHWLVATLCSFGRFLKAAFFLLLPER
Turning to B4, in the experiment with 1F-mouse Mcl-1 (mouse), the binding result was “binds”.

B5: mouse Bok^ΔTM (domain or fragment, UniProt O35425 1-187)
chain: MEVLRRSSVFAAEIMDAFDRSPTDKELVAQAKALGREYVHARLLRAGLSWSAPERASPAPGGRLAEVCTVLLRLGDELEQIRPSVYRNVARQLHIPLQSEPVVTDAFLAVAGHIFSAGITWGKVVSLYSVAAGLAVDCVRQAQPAMVHALVDCLGEFVRKTLATWLRRRGGWTDVLKCVVSTDPGFR
For B5, in the experiment with 1F-mouse Mcl-1 (mouse), the binding result is “binds weakly”.
